Measured values as given in ChEMBL document CHEMBL4888484, “Replenishing the malaria drug discovery pipeline: Screening and hit evaluation of the MMV Hit Generation Library 1 (HGL1) against asexual blood stage Plasmodium falciparum ,using a nano luciferase reporter read-out” (2022).
Where “and” joins values, the source holds several entries; their conditions need not be identical. Identical values can stand only once. The campaign covered roughly 150,000 compounds. About 540 (0.36%) showed an effect of 50% or more. The list shows a part of the results.

Tested on: Plasmodium falciparum
Test: Primary screen in NF54 nanoGlo assay, in single point, at 2uM, 72h; a lower Z score goes with more inhibition
Type: functional, Erythrocyte
Conditions: timepoint 72 hour

SMILES	% Inhibition	Z score	% Inhibition (2 µM)	Z score (2 µM)
CCCn1nnnc1CN1C(=O)N[C@](CCC)(c2ccccc2)C1=O	-5%	0.83		
Cc1c[nH]c(CN(C)[C@@H](C)c2ccccn2)c(C)c1=O	7%	-0.95		
CC(NC1CC1)C(=O)N1CC(c2cccc(F)c2)OCC1(C)C (stereo unspecified)	-7%	1.27		
COCCn1cc(N2C[C@@H](C(=O)Nc3cc(C)on3)CC2=O)cn1	-8%	1.46		
COc1cc(NC(=O)c2c(Br)c3ccccc3n2C)c(C(N)=O)cc1OC	3%	-0.27		
Cc1cnc(C2CCC2)n1[C@H]1CCN(C(=O)c2ccnn2C)C1	-15%	1.9		
COCCn1nnc2c1CCN(S(=O)(=O)CC1(C)CCCCC1)C2	30%	-3.35		
CC(NC(=O)C(Cc1ccccc1)NS(=O)(=O)c1ccccc1F)c1ccc(F)cc1 (stereo unspecified)	13%	-1.6		
COc1ccc(NC(=O)Cn2c(C)ccc2C)cc1-c1nnn[nH]1	4%	-0.5		
C[C@H](Oc1ccccc1)C(=O)N1CCC(n2cc(C(=O)NC3CCCC3)nn2)CC1	2%	-0.18		
O=C(Nc1cnc(C(F)(F)F)nc1)[C@H]1CCCO1	-2%	0.37		
CCOc1ccc(OCc2nnc(C3CCC3)n2C)cc1	0%	0.01		
COc1ccc(-c2c(C)noc2NC(C)=O)cc1S(=O)(=O)Nc1ccccc1Cl	-7%	1.02		
CC(=O)c1ccc(S(=O)(=O)NC2(C(F)(F)F)CCOCC2)cc1	-12%	1.89		
CN1CC(NC(=O)c2cnnn2C)C(c2ccccc2)C1 (stereo unspecified)	-6%	0.86		
COc1cc(OC)cc(C(=O)N2Cc3cncnc3C2)c1	-16%	2.65		
NC1CCC2CN(c3noc4ccc(Br)cc34)CC12 (stereo unspecified)	12%	-2.35		
CCOC1CC(O)C12CCN(C(=O)c1cc(C(C)C)n(C)n1)CC2 (stereo unspecified)	-16%	2.28		
CC1=C(c2ccccc2)S(=O)(=O)N=C1N1CC(C)CC(C)C1 (stereo unspecified)	-6%	0.94		
CC(=O)c1ccc(-c2ccc3nc(-c4ccc(C)cc4)c(CCC(=O)NCc4ccco4)n3c2)cc1	-1%	0.14		
Cc1cnc(-c2noc(C=C3CC[C@H](C)C3)n2)s1	-7%	0.68		
O=C(NCc1ccc(CNC(=O)c2ccccc2)cc1)c1ccccc1	1%	-0.12		
Cc1ncsc1CN[C@@H](C)C1(Br)CC1	2%	-0.28		
Cc1cnc(-c2ccccc2)n1C1CCN(C(=O)CCC2CCCC2)CC1	-14%	1.78		
C[C@H](NC(=O)Cc1ccccc1)C(C)(C)C	-4%	0.59		
Cc1c(NC(=O)N[C@H]2[C@@H]3COC[C@@H]32)cnn1CC(C)C	-12%	1.24		
Cn1cncc1C(=O)NCC1CCN(c2cnsn2)CC1	-20%	1.97		

SMILES	% Inhibition	Z score	% Inhibition (2 µM)	Z score (2 µM)
Clc1ccc([C@H]2CN(Cc3ccccn3)CCO2)cc1	1%	-0.15		
CCCC[C@H](C)C(=O)Nc1cc(-c2cnn(C)c2)nn1C	-14%	1.74		
Cc1nn(C)c(C)c1CC(=O)NCC1(NC(=O)OC(C)(C)C)CCCCCC1	-3%	0.29		
COc1ccc(CN2C(=O)[C@@H]3C[C@@H](CN3C3CCC3)Oc3ccccc32)cc1	15%	-1.78		
c1ccc(Cn2c(-c3ccccc3)nc3cccnc32)cc1	-12%	1.59		
O=C(C[C@H](c1cccc(C(F)(F)F)c1)c1cnc2ccc(Cl)cn12)NC(c1ccccc1)c1ccccc1	-10%	1.34		
O=C(Cc1cc2ccccc2s1)N1CCC(OCCO)CC1	15%	-1.89		
Cn1nc(C(=O)Nc2ccc3c(c2)OCCO3)ccc1=O	-5%	0.7		
Cn1c(C(=O)N2CCC[C@H]2c2ccc(Cl)cc2)cccc1=O	-8%	1.05		
O=C(c1cc(-c2ccco2)[nH]n1)N1C[C@@H]2CCS(=O)(=O)[C@@H]2C1	29%	-3.24		
CC(CNC(=O)C1CN2CC3CC2(CO1)C3)COCc1ccccc1 (stereo unspecified)	-9%	0.93		
O=C(NCC1(c2ccccc2)CC1)c1ocnc1C(F)(F)F	-8%	1.43		
CN(C)C(=O)c1cn[nH]c1-c1ccc(S(=O)(=O)Nc2ccc(OC(F)(F)F)cc2)o1	2%	-0.22		
Cc1ccc(-c2nsc(NC(=O)c3oc4ccccc4c3C)n2)o1	5%	-0.49		
COc1cccc(N2C[C@H](Cc3ccccc3)N(C(=O)C(C)(C)C)CC2=O)c1	10%	-1.29		
CCCc1nnc(NC(=O)CCOCC)s1	-4%	0.75		
CCc1nc(CNc2cccc(S(=O)(=O)N3CCCCC3)c2)n[nH]1	-2%	0.21		
CN(C)c1ccc(C(=O)N2CCN(c3ccc(F)cc3)CC2)cn1	-5%	0.48		
COC(=O)c1cc(C2CC2)nc2c1c(=O)n(Cc1cccc(C)c1)c(=O)n2-c1ccccc1OC	-3%	0.36		
COc1ccccc1-c1cc(C(=O)NCc2ccc(C)cc2)c2c(-c3ccccc3)[nH]nc2n1	4%	-0.56		
O=C(O)[C@@H]1CCCN1C(=O)[C@@H]1CCCN1C(=O)[C@H](Cc1ccccc1)n1c(=O)[nH]c2ccccc2c1=O			-11% and -5%	1.4 and 0.64
O=C(CCCC1CCOCC1)NCc1cccc(-c2ncc[nH]2)c1	5%	-0.88		
COCCN1C[C@]2(CCCN(C(=O)CN(C)c3ccccc3)C2)CCC1=O	-6%	1.27		
O=C(c1ccc(Cl)cn1)N1CCc2nocc2C1	-29%	2.52		
CN1CCN([C@H]2CCN(Cc3ccc4ccn(C)c4c3)C[C@H]2CCCO)CC1	-1%	0.1		
CCC(=O)NC[C@@H](CO)Cc1cc(Br)ccc1OC	17%	-3.1		
